We go through one molecule from doi:10.1101/2022.02.03.478898 (bioRxiv, 2022).

This assay concerns the target mTOR complex 2 (mTORC2), human core complex of mTOR, Rictor, mLST8 and mSin1 (human, UniProt P42345;Q6R327;Q9BVC4;Q9BPZ7). Put plainly: SEC. For orientation: Size exclusion chromatography separates by hydrodynamic size, large species first.

B1: Inactive human kinase dead Akt1, FLAG-Akt1-K179M (enzyme)
chain: not shown
As to B1, the binding result is reported as “binds”.
